Among all 71,000 compounds or so, about 1,800 (2.5%) were called active. This list was built around the results that the source calls inconclusive (neither active nor inactive); the mix of calls is not that of the screen. The call rests on the fitted dose curve; in most records, active means well fitted activation curve with a large enough effect in the signal ratio, with a control signal flat (not every such curve was filed as active); inconclusive means small, poorly fitted or top-dose-only effect, or effect the other way, or a change in a side signal; inactive means flat fitted curve, though single readings scatter; the % refers to the signal ratio. A potency beside an inconclusive call is a rough fit, not a confirmed value.
assay: Cell signaling CRE-BLA (Fsk stim); details: CHO CRE-bla reporter (cAMP response element driving beta-lactamase), forskolin EC10, beta-lactamase ratio; activity change, negative = inhibition: at 38.2 µM (top of the series) unless noted; on activity change, negative = inhibition: % of control where 0% means no effect
Method in brief: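 CRE-bla CHO reporter cells treated with compound titration plus EC10 NKH 477 (water-soluble forskolin), incubated 3 h at 37 °C; CCF4 loading 2 h at room temperature, 460/530 nm emission ratio read, AC50 values derived for positive or negative modulators.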
Potency means the concentration at half of the fitted maximal effect; tags describe the fitted curve by direction and shape.

Compound	activity change, negative = inhibition	Potency
COc1ccccc1NC(=O)CSc1nnnn1-c1ccc2c(c1)OCO2	inconclusive: 24.7%	–
COc1ccc(NC(=O)c2cc(C(C)C)on2)cc1OC	–	inconclusive: 2.51 µM [rising, full curve]
CCCCC(=O)Nc1cc(C)c2c(=O)oc3ccccc3c2n1	–	inconclusive: 10 µM [rising, partial curve, poor fit]
O=C(C1CCN(S(=O)(=O)c2ccc(F)cc2)CC1)N1CC=C(c2ccccc2)CC1	–	inconclusive: 2.51 µM [falling, full curve, poor fit]
CCOC(=O)c1[nH]c(C)c(C(=O)NCCc2ccc(OC)cc2)c1C	–	inconclusive: 2.51 µM [rising, single point]
Cc1cc(-c2ccccc2)c2c3c(cn2n1)c(=O)n(C)c(=O)n3C	inconclusive: 26.8%	–
Cc1ccnc(SCCn2c(Br)nc3c2c(=O)n(C)c(=O)n3C)n1	–	inactive
C[C@@H]1CC2(OC(O)[C@]3(C)O[C@H]23)O[C@H]2C[C@@]3(C)[C@@H]4CC[C@H]5C(C)(C)C(O[C@@H]6OC[C@@H](O)[C@H](O)[C@H]6O)CC[C@@]56C[C@@]46CC[C@]3(C)[C@@H]12 (stereo partly drawn)	–	inactive
CN(C)CCCSc1ccccc1NC(=O)/C=C\c1ccccc1	inconclusive: -18.5%	–
Cc1ccc(S(=O)(=O)Cc2ccc(C(=O)NCCCN3CCCC3=O)o2)cc1	–	inactive
O=C(NCCCn1ccnc1)Nc1ccc(Cl)cc1	inconclusive: 8.04%	–
Cc1nc2ccccc2n1-c1nc(-c2ccco2)cc(C(F)(F)F)n1	–	inactive
CCOC(=O)N1CCc2c(sc(NC(=O)c3ccc(S(=O)(=O)N4CCCC4)cc3)c2C#N)C1	–	inconclusive: 12.6 µM [rising, single point]
COc1ccccc1CNc1nc(-c2c(C)noc2C)nc2ccccc12	–	inconclusive: 12.6 µM [rising, single point]
COc1ccc(/C=C/c2cc(OC)cc(=O)o2)cc1	–	inactive
CCn1c(SCC(=O)Nc2cc(OC)c(OC)c(OC)c2)nnc1-c1cccs1	inconclusive: 16.4%	–
N#Cc1cc2ccc(N3CCOCC3)cc2cc1C#N	inconclusive: 17%	–
[O-]/[N+](=C/c1cccnc1)c1ccc(Br)cc1	inconclusive: -16.4% [at 7.6 µM]	–
COC(=O)c1[nH]c2ccc(C)cc2c1NC(=O)CN1CCCc2ccccc21	–	inactive
COc1ccc(OC)c2[nH]c(=O)c(CCNC(=O)c3ccc(Br)o3)cc12	–	inconclusive: 10 µM [rising, partial curve]
COC(=O)c1ccccc1COn1c(=O)c[n+]([O-])c2ccccc21	–	inactive
COc1ccccc1CCn1c(=O)c(-c2ccc(F)c(F)c2)nc2cncnc21	–	active: 10 µM
CCN(CC)c1nc(-c2nn[nH]n2)nc(N(CC)CC)n1	inconclusive: -2.17%	–
CCn1c2ccccc2c2cc(CN3CCN(C(=O)c4ccco4)CC3)ccc21	inconclusive: 11.1% [at 7.6 µM]	–
CCN(CC)S(=O)(=O)c1cccc(S(=O)(=O)c2cccc(S(=O)(=O)N(CC)CC)c2)c1	inconclusive: 10.2%	–
C/C=C/Cn1c(Br)nc2c1c(=O)n(C)c(=O)n2C	–	inconclusive: 10 µM [rising, single point]
O=C1CC(c2nc3ccccc3[nH]2)CN1Cc1ccccc1 (stereo not drawn)	inconclusive: 20.9%	–

Compound	activity change, negative = inhibition	Potency
CCN(CC)C(=O)C1CC(c2ccc(OC)cc2)=NO1 (stereo not drawn)	inconclusive: 7.75%	–
CC(Nc1nc(N2CCN(S(C)(=O)=O)CC2)nc2ccccc12)c1ccccc1 (stereo not drawn)	–	inactive
CCN(CC(=O)NCc1cccs1)S(=O)(=O)c1cccc(C(C)=O)c1	inconclusive: -16.5%	–
Cc1coc(C)c1C(=O)CC1(O)C(=O)Nc2cc(Cl)cc(Cl)c21 (stereo not drawn)	inconclusive: -11.8%	–
O=C(NCCCn1ccnc1)C1c2ccccc2Oc2ccccc21	inconclusive: 20.9%	–
CS/C(=N\S(=O)(=O)c1cccs1)Nc1ccc(N2CCOCC2)cc1	inconclusive: 19.8%	–
CCCC(=O)NCCc1cc2ccc(C)c(C)c2[nH]c1=O	–	inconclusive: 12.6 µM [rising, partial curve]
CCN(CC)c1ccc(NC(=O)c2ccco2)c(C)c1	–	inactive
COc1ccc(C(O)c2nc3ccccc3s2)cc1 (stereo not drawn)	–	inactive
COc1ccc(-c2cc(C(F)F)n3ncc(C(=O)N4CCN(C(=O)c5ccco5)CC4)c3n2)cc1	–	active: 15.8 µM
Cc1nc2cnc(N3CCNCC3)nc2n(Cc2cccs2)c1=O	–	active: 10 µM
N#CC1=C(N)Oc2cc(O)ccc2C1c1ccccc1 (stereo not drawn)	inconclusive: 8.6% [at 7.6 µM]	–
Cc1ccc(Nc2c3c(nc4ncnn24)CCC3)cc1	–	inactive
COc1ccc(OCCOCC(O)CN2CCOCC2)cc1 (stereo not drawn)	–	inconclusive: 0.0631 µM [falling, partial curve, poor fit]
COP(=O)(/C=C/c1ccccc1)C(O)c1ccc(F)cc1 (stereo not drawn)	inconclusive: -8.51%	–
Cn1c(Cc2csc(N)n2)nnc1SCC(=O)NC1CCCCC1	inconclusive: 0.391%	–
CCOC(=O)C1CCN(C(=O)c2ccc(OC)cc2OC)CC1	–	inactive
COC(=O)c1sc(NC(=O)C2CCCO2)c(C(=O)OC)c1C (stereo not drawn)	–	inconclusive: 0.1 µM [rising, full curve, poor fit]
CCCN(C/C=C\I)[C@@H]1CCc2cccc(O)c2C1	inconclusive: -28.9%	–
CCN1CCN(C(=O)c2cc3c(=O)n(C)c4ccccc4c3n2C)CC1	–	inconclusive: 20 µM [rising, single point]
Brc1ccc(CSc2nnc(-c3cnccn3)n2Cc2ccco2)cc1	–	inactive
N#CCCSCc1ccc2oc(C(=O)O)cc2c1	inconclusive: -4.84%	–
CCN(CC)c1ccc(NC(=O)C(C)C)cc1	inconclusive: 37.4%	–
O=S1(=O)CCN2C(c3ccc4c(c3)CCCC4)=CSC2=N1	–	inconclusive: 3.98 µM [falling, single point]
COc1ccc(NS(=O)(=O)c2ccc3oc4ccccc4c3c2)cn1	–	inactive
COc1cc(C(=O)Nc2nc(-c3cccs3)cs2)cc(OC)c1OC	–	inconclusive: 1.58 µM [rising, partial curve]

From PubChem BioAssay AID662 (National Center for Advancing Translational Sciences (NCATS), 2007)
